# Measurements as given in the supplement of paper PMC3334620.
# In all, about 33,000 sequences were measured (“E-score (-0.5 to 0.5)”: median about -0.036, highest 2% from about 0.37 on). Some of the results follow.
# Target: T1, Yer064c (UniProt P40041)
# T1 sequence: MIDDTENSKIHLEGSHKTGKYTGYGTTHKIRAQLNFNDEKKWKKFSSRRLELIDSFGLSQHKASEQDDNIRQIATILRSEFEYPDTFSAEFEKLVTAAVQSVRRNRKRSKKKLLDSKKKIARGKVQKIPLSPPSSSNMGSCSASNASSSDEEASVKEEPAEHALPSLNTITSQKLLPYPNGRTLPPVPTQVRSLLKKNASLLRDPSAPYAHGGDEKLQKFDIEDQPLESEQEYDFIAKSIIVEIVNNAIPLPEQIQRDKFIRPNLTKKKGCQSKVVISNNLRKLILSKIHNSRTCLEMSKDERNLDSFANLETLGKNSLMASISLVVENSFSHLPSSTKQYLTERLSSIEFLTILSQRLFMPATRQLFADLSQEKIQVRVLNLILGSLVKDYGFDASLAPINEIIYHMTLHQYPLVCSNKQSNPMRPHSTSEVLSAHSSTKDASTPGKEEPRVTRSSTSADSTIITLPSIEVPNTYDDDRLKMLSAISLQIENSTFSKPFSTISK
# Test: PBM E-score (8-mer binding enrichment) (E-score (-0.5 to 0.5)); higher = stronger / more preferred TF binding; most listed sequences are background and not binding sites
# Details: protein concentration: 200 nM; construct: GST-full length
# How it was run: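 Universal all-10-mer Agilent arrays, double-stranded by primer extension on fresh or once-stripped slides, were probed with about 100-200 nM GST-tagged yeast transcription factors made by PURExpress. Fluorescent anti-GST detected bound protein, and masliner normalised the scans. E-scores from the Universal PBM Analysis Suite were given to each ungapped eight-base word pooled with its reverse complement.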
row,Sequence,PBM E-score
1,AATGCCAT,-0.214
2,TCCGCCGA,-0.138
3,CAGGTCAG,-0.0795
4,GCAGGTCA,-0.0837
5,AACCGGGT,-0.141
6,ACACAGAA,0.127
7,CCGGGCCG,-0.182
8,TATCCAGA,-0.0829
9,AACAGAAC,0.0521
10,AGGCTCTG,-0.169
11,TAGAAGGA,-0.223
12,CACCTTAC,-0.00359
13,ATAGCGTG,-0.132
14,ATTGATTC,0.301
15,ACACATGA,0.284
16,ACCGTCTG,-0.294
17,TCAACTGA,0.2
18,AAATGGTG,0.00492
19,AGGATAGC,-0.128
20,CATTACAG,-0.0355
21,AGGCATAG,-0.24
22,CCCCGGCA,-0.192
23,ATAGGTGC,-0.135
24,TCGTAGAA,-0.0901
25,CGAGATAA,0.0474

row,Sequence,PBM E-score
1,CGGGTTAA,0.00304
2,CGCCATCA,-0.26
3,GGGGTGTA,-0.17
4,CATGACGG,-0.11
5,AGCACCTA,-0.287
6,AACGCACC,-0.168
7,ACTGTATC,-0.163
8,ATACAGTC,0.16
9,ATCTTCGC,0.0563
10,AAAAGGGG,-0.189
11,GGAAATAA,0.0785
12,ATGGAATG,-0.094
13,CAGGCTAA,-0.0864
14,CGAAAACA,-0.133
15,GTTACCTA,0.014
16,AGATCCGA,-0.0932
17,ATTTCCGC,0.0475
18,CGAGAGCA,-0.109
19,CTTGAAAA,0.0333
20,AACCGGTC,-0.202
21,AGACCGGA,0.0278
22,ATCCCCTA,-0.226
23,AATTTCCC,-0.228
24,ACGCTCAA,0.0189
25,CGCGCCCG,-0.139

row,Sequence,PBM E-score
1,AGCACAAG,0.107
2,CGACTGTC,0.123
3,CGCCGCAC,-0.255
4,AAGCCTGT,-0.00621
5,CGCAAATC,-0.174
6,CTGCCACA,-0.142
7,GCGAGCAA,-0.119
8,CTCTAAAC,-0.0222
9,AACTCTAA,0.12
10,GGATGATA,-0.185
11,CTGGCCAG,-0.0767
12,GCGTAAAA,0.121
13,ATGCGATG,0.0307
14,GCTCTCTA,-0.147
15,ACGAGATG,0.0698
16,CGTTGAAA,-0.0397
17,CTTTTAGC,0.00776
18,TCACCAAA,0.166
19,CCACTGAA,0.162
20,AGCCGACC,-0.0628
21,CATTAGCC,-0.0726
22,AGAGGGAA,-0.207
23,CCGCAACC,-0.145
24,AATCGTTG,0.0993
25,CGGCAGAG,-0.148

row,Sequence,PBM E-score
1,AAGTCATG,0.465
2,ACACATTC,0.124
3,AAATGAGA,0.12
4,CACTGAGA,0.0924
5,AGCGCGTA,0.0749
6,GCGGACGA,-0.045
7,ACCTGAAG,-0.0636
8,AAATAGGT,-0.105
9,AGTAAACT,0.0427
10,TAAATTGA,0.199
11,ATCCCGAA,-0.0406
12,AGAGCATG,-0.038
13,AATGTTCT,-0.193
14,GTAGTCTA,0.29
15,CTACTAAG,0.0152
16,TGCATACA,-0.114
17,CGGTACTA,-0.177
18,AGGTAGAG,-0.155
19,CGGCAGTA,-0.26
20,ACAGCGAC,0.00958
21,ATTCCCGG,0.117
22,CACGTGGG,-0.174
23,AGAAAATA,0.143
24,CCCGGTCC,-0.293
25,TTAAGAAA,0.0927

row,Sequence,PBM E-score
1,AAAAATAA,0.143
2,GCTCAAGC,-0.0445
3,GGCCCATA,-0.0655
4,CCGTAGAA,-0.136
5,ACCGCGAC,0.198
6,AAGCTTGC,-0.213
7,GGACGCTA,-0.36
8,CCGATCGA,-0.0393
9,AGTCACGC,0.469
10,ACCTGCCT,-0.16
11,CTAGATAG,0.0392
12,ATACGGAA,-0.0806
13,GATAGAAA,-0.161
14,TCCCAGGA,-0.248
15,AAATCTTC,0.0915
16,GAATTCCA,-0.00599
17,AGAGAACC,-0.167
18,CCTAAGAG,-0.078
19,ACTTGGGC,-0.129
20,TGGCCCCA,-0.321
21,AGAGAACA,-0.0209
22,ACATAGCC,0.109
23,CCCGCTGA,0.0541
24,ATTCCCGC,-0.151
25,AGGAGCCG,-0.213

row,Sequence,PBM E-score
1,CCCTATTC,-0.281
2,AGGCAGAG,0.0112
3,TGTGGAAA,-0.101
4,ATCTTTTC,-0.0371
5,ACTCCACC,0.127
6,GGTGGTCA,-0.072
7,AACTATTC,-0.0637
8,AGTTATTG,0.0222
9,CACCTCGC,-0.162
10,CAAGCGTA,-0.0586
11,CTTAACAC,0.0726
12,CCCTGCAA,-0.142
13,AAGCCCTA,-0.125
14,ACGGGAGT,0.164
15,CCCATAGG,-0.143
16,CACATTCC,0.0956
17,GTATCAAA,0.223
18,CCTTGGCA,-0.134
19,ACGGTTGC,-0.187
20,ACTTAAAA,0.225
21,ATGCGCGC,-0.127
22,GTTATCGA,-0.13
23,CTGGCCAA,0.0359
24,CGGCTATC,-0.14
25,AAGGGGCC,-0.145

row,Sequence,PBM E-score
1,AGTTACAG,-0.027
2,ACACGGTC,-0.142
3,CACGATAG,-0.0151
4,CCAAATGA,0.207
5,GATCATTA,0.128
6,CGAACGCC,-0.33
7,AGCGGAAT,-0.00939
8,AGCTGGGC,-0.162
9,GCAGTCAA,0.281
10,AGATCGAC,-0.169
11,TCCACACA,-0.0811
12,GGCATTGA,-0.103
13,AAATTCGA,-0.05
14,GCCAAGGC,-0.214
15,CTAAAAAG,0.0232
16,CAGTGTCG,-0.265
17,ATGCACTG,-0.051
18,AATATTTA,0.0684
19,TAGCAATA,0.0604
20,ACCAAAGA,0.156
21,ATTGGGAG,-0.0622
22,CACTACTC,0.112
23,AGAACAAT,-0.0126
24,CGTATAGC,-0.14
25,GTCGTAAA,0.206

row,Sequence,PBM E-score
1,AAAACTCC,-0.0996
2,AAAGTGTG,0.145
3,CCAACACC,-0.158
4,ATCTTGCA,0.16
5,CCGGACAC,-0.223
6,GAAGCACC,-0.132
7,GACTACTC,0.427
8,CCGTGCAG,-0.0727
9,AGGCGTTA,-0.123
10,CAATCCAA,-0.126
11,ATCGGATC,-0.142
12,CTCGCCGA,0.11
13,AGTATAAT,0.15
14,ACGTGTAC,-0.0329
15,TACTACCA,0.00773
16,CAAAGATA,-0.0257
17,CGTCCAGA,-0.208
18,GCATATCC,-0.255
19,GAACGCGA,0.176
20,CGAATTCG,-0.0217
21,CGCGCACC,-0.28
22,ATATGTAC,0.0162
23,AGAGCAGA,0.0558
24,ACCGTATA,0.0638
25,CAGAGGCA,-0.0329

row,Sequence,PBM E-score
1,ATAGAAAA,-0.0945
2,AAGCCGCT,-0.12
3,AGACGGAT,0.0246
4,AGATACTG,-0.144
5,ACTCTCAC,0.173
6,AATTGCGT,-0.0875
7,CATAATAA,-0.022
8,AATATTGC,0.0528
9,CCTGAATA,0.0546
10,CACACAGC,-0.024
11,CCTTGTCA,-0.0353
12,AGCGCTCA,0.0423
13,AAATGTGA,0.00892
14,AATGACGA,0.0304
15,ACTCCGTG,0.149
16,AGAGTCCG,0.212
17,ACCTTGTC,-0.295
18,AGAGTTCC,-0.286
19,GATATACA,-0.106
